# Test results taken from the supplement of paper PMC3334620.
# Over roughly 33,000 sequences, “E-score (-0.5 to 0.5)” has its median near -0.053; the highest 2% begin near 0.37. The list shows a part of the results.
# Target: Hap1 (UniProt P0CE41)
# Test: PBM E-score (8-mer binding enrichment) (E-score (-0.5 to 0.5)); higher = stronger / more preferred TF binding; most listed sequences are background and not binding sites
# Conditions: protein concentration: 200 nM; construct: GST-DNA-binding domain
# Outline: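 Detection of bound protein used fluorescent anti-GST, with scans normalised by masliner. The proteins were GST-tagged yeast transcription factors applied at about 100-200 nM to universal all-10-mer Agilent arrays made double-stranded by primer extension. Each ungapped eight-base word, pooled with its reverse complement, was scored with an E-score from the Universal PBM Analysis Suite.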
# UniProt P0CE41, sequence (P0CE41 whole entry): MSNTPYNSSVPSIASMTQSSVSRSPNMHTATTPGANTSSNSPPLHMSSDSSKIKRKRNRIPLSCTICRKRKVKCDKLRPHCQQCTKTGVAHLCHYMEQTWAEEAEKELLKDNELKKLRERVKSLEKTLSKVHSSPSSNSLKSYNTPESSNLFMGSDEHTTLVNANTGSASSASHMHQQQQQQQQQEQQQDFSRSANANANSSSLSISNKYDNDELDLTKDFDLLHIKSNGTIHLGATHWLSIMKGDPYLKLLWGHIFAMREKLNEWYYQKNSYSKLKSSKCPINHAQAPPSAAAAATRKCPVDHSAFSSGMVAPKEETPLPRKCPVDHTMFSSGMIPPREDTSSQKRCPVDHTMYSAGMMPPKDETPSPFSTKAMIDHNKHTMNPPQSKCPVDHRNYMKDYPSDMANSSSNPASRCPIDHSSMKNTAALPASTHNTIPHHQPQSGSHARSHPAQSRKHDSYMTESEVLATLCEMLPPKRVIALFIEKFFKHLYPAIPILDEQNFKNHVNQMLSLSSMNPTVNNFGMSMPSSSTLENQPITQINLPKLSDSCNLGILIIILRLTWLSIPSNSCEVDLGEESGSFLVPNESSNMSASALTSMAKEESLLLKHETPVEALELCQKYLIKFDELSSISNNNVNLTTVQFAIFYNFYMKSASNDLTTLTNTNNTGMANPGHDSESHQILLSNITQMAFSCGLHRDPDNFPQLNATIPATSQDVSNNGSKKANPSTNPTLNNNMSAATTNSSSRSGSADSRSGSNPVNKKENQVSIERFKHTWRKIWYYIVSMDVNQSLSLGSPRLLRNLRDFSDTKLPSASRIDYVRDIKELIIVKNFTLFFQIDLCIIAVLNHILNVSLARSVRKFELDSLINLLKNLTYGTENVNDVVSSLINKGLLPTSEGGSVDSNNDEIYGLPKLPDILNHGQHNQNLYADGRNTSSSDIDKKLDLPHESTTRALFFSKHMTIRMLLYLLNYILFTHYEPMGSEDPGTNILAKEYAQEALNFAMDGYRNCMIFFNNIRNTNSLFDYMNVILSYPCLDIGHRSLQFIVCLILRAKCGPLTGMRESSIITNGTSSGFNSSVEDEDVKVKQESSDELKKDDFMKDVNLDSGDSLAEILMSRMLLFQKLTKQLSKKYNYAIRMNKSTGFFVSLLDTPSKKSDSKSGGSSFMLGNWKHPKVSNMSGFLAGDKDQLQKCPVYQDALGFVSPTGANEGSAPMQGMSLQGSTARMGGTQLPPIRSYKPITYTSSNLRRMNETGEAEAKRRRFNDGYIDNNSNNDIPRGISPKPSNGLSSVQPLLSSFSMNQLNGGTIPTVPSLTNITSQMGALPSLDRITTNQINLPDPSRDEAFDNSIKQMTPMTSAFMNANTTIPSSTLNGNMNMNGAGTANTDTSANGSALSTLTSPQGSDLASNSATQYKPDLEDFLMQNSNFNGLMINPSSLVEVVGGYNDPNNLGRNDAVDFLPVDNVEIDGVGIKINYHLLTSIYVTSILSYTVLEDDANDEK
row,Sequence,PBM E-score
1,CATCGATA,0.142
2,CGCCGACG,0.274
3,ACACCCCC,-0.0596
4,GTGGGAAC,-0.098
5,GGCGCCAC,0.159
6,CAGCTTCC,0.00993
7,AGAGCGCC,0.0628
8,AGTACCGA,0.291
9,GCCACAAC,-0.0952
10,CCACAGGC,-0.261
11,AGCCATCG,0.0308
12,GACTGATC,-0.19
13,AAGCCCGC,0.337
14,ACGAGCCA,-0.276
15,GATTGACC,0.143
16,GATTGACA,-0.179
17,AGGGTCTG,-0.31
18,AGTCTAAT,-0.133
19,CAGACCAG,0.0149
20,CCTGTGCA,-0.236
21,AGACATTC,-0.168
22,CCAAAGAA,-0.194
23,CAGCACTG,-0.165
24,GGCAAGGA,-0.0722
25,CCGGTAAA,0.456

row,Sequence,PBM E-score
1,AAGAGAGC,-0.0699
2,ATAGATAA,0.114
3,ACTCGACC,-0.044
4,CACTGTAG,-0.148
5,AGACGGCA,-0.0262
6,ATGGCGCC,0.0554
7,AATCGCGA,0.0866
8,TATGTCAA,-0.134
9,CCGATCCG,0.438
10,AAGTCGCA,-0.093
11,CCATAAGC,-0.015
12,CCTATCGC,0.194
13,ATACCTCG,0.0008
14,AAGCGGGC,0.0717
15,CCACGCAC,-0.11
16,ATATGGTC,-0.0714
17,ATCTGCCA,-0.0572
18,CTCGCTTA,0.116
19,AAATTGTT,-0.0229
20,ACAGCTGC,-0.151
21,ATGATTGA,-0.127
22,ATAACCTG,-0.108
23,CTGACCTA,-0.124
24,GGAGGGCC,0.0155
25,ACCACACA,-0.157

row,Sequence,PBM E-score
1,CCTAACGC,0.204
2,CATCAGTA,-0.187
3,AGCTGAAT,-0.238
4,CGTTCCTC,0.0909
5,AACCGAGG,0.148
6,CACTGTTA,-0.128
7,ACCGCTGC,-0.114
8,CATTGTAA,-0.0956
9,CATCATGA,-0.191
10,ACGACTCC,-0.191
11,AACCGCAG,-0.0736
12,ATAACTTA,-0.214
13,CCCCGCCG,0.259
14,GAGTTGTA,-0.0764
15,CATTAACA,-0.0706
16,AGTGGAAT,-0.00393
17,CGACTGAG,-0.208
18,CGCTGATA,0.0707
19,ACGGCTGG,0.00715
20,AGGTACGG,0.0524
21,ACAGGCGG,0.0805
22,CAGAGTAG,-0.28
23,ATGACATG,-0.192
24,ACGACAAG,-0.153
25,GACAGTCC,-0.0284

row,Sequence,PBM E-score
1,CTTCGAGA,-0.234
2,GTCAAAAA,-0.186
3,AAAGTGAC,-0.0776
4,CCTAGTCA,-0.288
5,TAAATATA,0.0175
6,ACTGGCCT,-0.0517
7,GCTTGGCA,-0.322
8,CAGTTCAC,-0.0851
9,AGAGGCAC,-0.1
10,CACACAAA,-0.251
11,GTGCGCGA,0.0178
12,ATTAACAG,-0.171
13,ATATTGTG,-0.0831
14,GTCAGCTA,-0.17
15,GTATGGCA,-0.172
16,ATGCCACG,-0.0192
17,CAGTATCA,-0.219
18,CACTTGTA,-0.237
19,TAACTGAA,-0.186
20,ACTTTTCG,0.199
21,TTAGAAAA,-0.0981
22,CTGAGCTA,-0.267
23,GCAGTGCA,-0.136
24,ACCACGGA,0.333
25,TGCGAGAA,-0.143

row,Sequence,PBM E-score
1,CCTACTAA,-0.0635
2,ACTTATCG,0.415
3,CCGGTTCC,0.349
4,CGAGCCCG,0.149
5,CCGTGGAA,0.245
6,CCTGGCAG,-0.239
7,CCCTAACC,-0.0144
8,TATGCTGA,-0.16
9,ACTGCAAA,-0.157
10,ACTCCTAC,-0.215
11,AGACTCGG,0.217
12,CTGCCCAC,-0.237
13,GCATAAGC,-0.169
14,CAACATTA,-0.195
15,ATACCAAG,-0.0833
16,ACGTCGAC,-0.103
17,ACCACTCT,-0.133
18,CATGTGTC,-0.179
19,CCCAGAGA,-0.226
20,AATATACC,0.0775
21,ACCATACC,-0.0283
22,ATGAACCA,-0.0935
23,ATCAGCAT,-0.0371
24,AAGTGGGC,-0.0823
25,ACGAGGAG,-0.273

row,Sequence,PBM E-score
1,AAAAGTTT,-0.0714
2,CGACCTCA,-0.169
3,CCCTACGA,-0.304
4,CTCTGGCA,-0.217
5,CTTTTACC,0.0063
6,TTCTTCAA,-0.155
7,AATCAGCC,-0.134
8,TAAGATAA,-0.0913
9,CTGTTGTC,0.103
10,ATCTTGAA,-0.139
11,AGGGTACA,-0.185
12,ACAGGGTC,0.0422
13,CGTCTTAA,-0.122
14,GTTTATGA,-0.0644
15,CGATGTGA,-0.0762
16,ATACCTGG,0.0136
17,CAGTGAGA,-0.107
18,TCCAAACA,-0.283
19,GACAAGAC,0.11
20,CGCTTTTC,0.0796
21,CGAAGACG,0.0145
22,AACGTTGT,-0.162
23,AGTCGGTC,0.279
24,AATGTTAC,-0.0284
25,CGGTCTTA,0.404

row,Sequence,PBM E-score
1,AGCTTCTC,-0.166
2,CACATACC,-0.00781
3,GGTGGCGA,-0.037
4,GAACTTAC,-0.124
5,GTCACGAA,-0.00509
6,CGGACAAA,0.405
7,CGTGGGCC,0.157
8,AGCAAAAT,0.065
9,CTGGACGA,-0.158
10,AAAACGGC,0.2
11,CGGAACAA,0.349
12,ATATCATG,-0.214
13,CCTTCTAA,-0.349
14,CGAATACA,0.16
15,ATGTGCAG,-0.198
16,CCTAGGGC,-0.12
17,ATTATTAC,-0.0189
18,CATGAATG,-0.0771
19,GCTGGCTA,-0.233
20,CCAGCGGG,0.148
21,ATATGTAG,-0.27
22,AAAACACG,-0.0285
23,ATGCAGAA,-0.178
24,AGTTTTCC,0.237
25,AGCTTAAC,-0.0285

row,Sequence,PBM E-score
1,GCAGTAAA,0.007
2,CATACTTC,-0.122
3,CTTCCTTC,-0.207
4,AGAAAGAT,-0.138
5,TGCGGCAA,-0.00354
6,GTAACCAC,-0.228
7,AAGGTGTC,0.0209
8,ACGGTAGT,-0.00902
9,AATAGGGG,0.0799
10,CGCAGGAG,-0.0823
11,GCCCACAC,-0.0996
12,CTATGCTC,-0.243
13,ATTAGGGA,-0.0117
14,AAACGCTG,-0.199
15,CGGTACAC,0.0857
16,GACTGATA,-0.0852
17,AGCTCCGC,0.306
18,AACAAGAC,0.0147
19,ACTAACGC,-0.0057
20,CTGATGTC,-0.015
21,ACTGAACC,0.0839
22,AACGGCGA,0.267
23,GGGCATCA,-0.0958
24,CACTGGGA,-0.27
25,TAGTTCCA,-0.106

row,Sequence,PBM E-score
1,AATATCTG,-0.0154
2,AATGGTGC,-0.0746
3,AGGGGGGA,-0.173
4,ATTCTTCA,-0.121
5,GAAACCGC,0.195
6,AATGTTGG,-0.052
7,ATTTAACG,0.251
8,AAGGGCCT,-0.119
9,CGTAGCCC,0.0376
10,ATCGATTA,-0.0432
11,GCACTACA,-0.183
12,ACGTATCT,-0.0518
13,CCAATGCC,0.171
14,ACTCCTAG,-0.327
15,ATGACACC,-0.153
16,TCGGAACA,0.349
17,GGGGCTGA,-0.241
18,GAGCGTCC,-0.0968
19,AATGGACG,0.0767
20,AGAGTCGC,-0.174
21,ATCATAAC,-0.13
22,GGATCTTA,0.149
23,CTAGAAGC,0.028
24,CCAGTAGA,-0.267
25,AGCATTCG,0.0912

row,Sequence,PBM E-score
1,ACCTTAGA,-0.0585
2,AGAAGCTG,-0.149
3,ACAGATTA,-0.147
4,AGGATGCC,-0.202
5,AGTAGAAC,-0.157
6,CTATTAAA,-0.177
7,CCTGGCAC,0.0116
8,AATTAGTG,-0.0879
9,GAATCCCA,-0.205
10,TCGTTCAA,-0.246
11,CGGAGTCA,0.313
12,AGTATAAC,0.0368
13,CAGGGCCG,0.185
14,ATTGCTGC,0.0984
15,CAACCCTC,-0.111
16,GGTTAACA,0.0714
17,CCCGGCTA,0.344
18,CAAAAAGC,0.0709
19,CGCGCGGC,0.27
20,ATCTTAAC,-0.00249
21,ATTGTCCA,-0.128
22,AACAATTC,-0.155
23,AGGTTTAG,-0.116
24,TATCCCGA,0.221
25,CAGGTCTC,-0.243

row,Sequence,PBM E-score
1,CCGCCGCC,0.193
2,GCAAGCAA,-0.112
3,AATTGGAG,-0.233
4,CATGCGAC,-0.239
5,CAAATTTA,-0.0445
6,ACTCGTCC,0.119
7,GAGCACAA,0.00705
8,AACGGTAG,-0.00937
9,GCACTGGC,-0.216
10,ATGCTTAC,-0.296
11,CTTCGAAG,-0.159
12,GATCGTGC,0.0569
13,GAAAAGCA,-0.118
14,CACCAGAC,-0.173
15,ACGCAAAA,-0.106
16,CCCCTACA,-0.218
17,AGTTTCAT,-0.0777
18,GCAGCATA,-0.109
19,TACATTCA,-0.318
20,CCACCGCA,0.00756
21,TACAGACA,-0.154
22,GGTTTTAC,0.147
23,CCTTCCGA,0.0743
24,TGACGACA,-0.0107
25,CCCGCGCA,0.147

row,Sequence,PBM E-score
1,ATCTTGTG,-0.197
2,AAGGAAGT,0.113
3,CATAACCG,0.133
4,CCCCGGCC,0.348
5,ATCCTCAG,-0.0491
6,CGCCTCGA,-0.0556
7,AACAAAGC,-0.0164
8,AAGCGGTA,0.038
9,ACGCGAGG,-0.0101
10,CCTCTATC,-0.0326
11,GCTTCACC,-0.12
12,CTCATCAG,-0.0797
13,CAGCGTGA,-0.229
14,AGGACCGA,0.311
15,AGGATTTA,0.227
16,ATGTTTAG,-0.239
17,TCTCCCAA,-0.0542
18,AGTGTCAT,-0.133
19,AAGATAAA,0.0315
20,AGTGTGGA,-0.189
21,ATTCGACG,-0.116
22,ATACCCAC,0.154
23,TATTCAAA,-0.0863
24,GACGAAAC,0.0118
25,ACATTCCC,0.0549

row,Sequence,PBM E-score
1,ACAGATGT,-0.0842
2,GCGCGCGA,0.16
3,ACTTGGAG,-0.176
4,AGTCGACT,-0.299
5,ACTATGGC,-0.131
6,AGGTTTGC,-0.195
7,GGTGCGCA,0.0712
8,TGGGAGAA,-0.305
9,ATCAGCCG,0.259
10,ACATCCGC,0.347
11,ACAGGATG,-0.102
12,CATCCGAC,0.344
13,ACAGGAGA,-0.131
14,ACTCCCAG,-0.0473
15,GGGATTAA,0.331
16,ATAAGGAA,-0.158
17,GTCATCTA,-0.171
18,GACATGCC,0.0554
19,AGAAATCT,-0.0414
20,AGCCCTAC,-0.129
21,GTGTTGCA,-0.0698
22,CAATAGCG,0.0928
23,CTATTAAC,-0.00444
24,ACGAACAT,0.0579
25,CGCTGTAA,-0.0898

row,Sequence,PBM E-score
1,ACACATTG,0.00442
2,ATTGACTG,-0.141
3,TTATACAA,0.00951
4,ATTTTCGG,0.396
5,CCGGGACG,0.199
6,CATCTCCA,-0.0795
7,GGCCTCCC,0.0309
8,ACTCCCAT,-0.176
9,AGAATTCA,-0.143
10,CTTCTGGA,0.078
11,AGGGCCAG,-0.251
12,TGCTTCCA,-0.292
13,ACTGCAGT,-0.246
14,GCGATGCC,-0.0826
15,GTGAGCAA,-0.15
16,CCTAGGAC,-0.237
17,GAGTCAGC,-0.09
18,CCCCTCAC,-0.193
19,GCTTCTGA,-0.074
